System: SH-SKN cell lines
Test: Mitochondrial respiration (Seahorse mitochondrial stress test, OCR)
Assay type: cell-based, human
Details: 10 μM, 12 hours
Experimental: All drugs were used at 10 μM. The experiment was repeated 3 times to 5 times.

| SMILES | Activity of enhancing mitochondrial respiration (in words) |
| --- | --- |
| Nc1nc(N2CCN(C(=O)[C@H]3CCCO3)CC2)cc2cc3c(cc12)OCCO3 [Compound T10] | no activity of activating mitochondrion |
| Nc1nc(N2CCN(C(=O)c3ccco3)CC2)cc2cc3c(cc12)OCO3 [Compound T11] | no activity of activating mitochondrion |

Same assay, conditions: Homo sapiens, 12 hours, vs DMSO control, read-out: Increase in Maximal Mitochondrial Respiration

| SMILES | activation at 10 µM |
| --- | --- |
| CC1Oc2cc3cc(N4CCN(C(=O)[C@H]5CCCO5)CC4)nc(N)c3cc2O1 (stereo partly shown) [Compound T3] | 15.3 ± 0.9% |
| Nc1nc(N2CCN(C(=O)[C@H]3CCCO3)CC2)cc2cc3c(cc12)OCCO3 [Compound T10] | 6.3 ± 0.4% |
| CC1(C)Oc2cc3cc(N4CCN(C(=O)[C@H]5CCCO5)CC4)nc(N)c3cc2O1 [Compound T4] | 18.1 ± 0.7% |
| Nc1nc(N2CCN(C(=O)[C@H]3CCCO3)CC2)cc2cc3c(cc12)OCO3 [Compound T1] | 22.1 ± 3.1% |
| Nc1nc(N2CCN(C(=O)[C@@H]3CCCO3)CC2)cc2cc3c(cc12)OCO3 [Compound T2] | 17.8 ± 2.2% |
| Nc1nc(N2CCN(C(=O)c3ccco3)CC2)cc2cc3c(cc12)OCO3 [Compound T11] | 8.6 ± 0.6% |
| Nc1nc(N2CCN(C(=O)[C@@H]3CCCN3)CC2)cc2cc3c(cc12)OCO3 [Compound T9] | 20.1 ± 0.8% |
| Nc1nc(N2CCN(C(=O)[C@H]3CCCO3)CC2)cc2cc3c(cc12)CCO3 [Compound T5] | 16.6 ± 0.8% |
| Nc1nc(N2CCN(C(=O)C3CCCC3)CC2)cc2cc3c(cc12)OCO3 [Compound T7] | 21.5 ± 4.1% |
| Nc1nc(N2CCN(C(=O)[C@H]3CCCO3)CC2)cc2cc3c(cc12)OCC3 [Compound T6] | 26.3 ± 3.6% |
| Nc1nc(N2CCN(C(=O)[C@H]3CCCN3)CC2)cc2cc3c(cc12)OCO3 [Compound T8] | 19.2 ± 3.8% |

Source: patent US20260355182A1, “ISOQUINOLINE DERIVATIVE, SYNTHESIS METHOD THEREFOR, AND USE THEREOF” (Harbin Gloria Pharmaceuticals Co., Ltd., priority 2023, published 2026)
